The chains are these.
B1: PhoQ; a variant is named by its letters at X, in order, P23837 (parent)
chain: MKKLLRLFFPLSLRVRFLLATAAVVLVLSLAYGMVALIGYSVSFDKTTFRLLRGESNLFYTLAKWENNKLHVELPENIDKQSPTMTLIYDENGQLLWAQRDVPWLMKMIQPDWLKSNGFHEIEADVNDTSLLLSGDHSIQQQLQEVREDDDDAEMTHSVAVNVYPATSRMPKLTIVVVDTIPVELKSSYMVWSWFIYVLSANLLLVIPLLWVAAWWSLRPIEALAKEVRELEEHNRELLNPATTRELTSLVRNLNRLLKSERERYDKYRTTLTDLTHSLKTPLXXLQXXLRSLRSEKMSVSDAEPVMLEQISRISQQIGYYLHRASMRGGTLLSRELHPVAPLLDNLTSALNKVYQRKGVNISLDISPEISFVGEQNDFVEVMGNVLDNACKYCLEFVEISARQTDEHLYIVVEDDGPGIPLSKREVIFDRGQRVDTLRPGQGVGLAVAREITEQYEGKIVAGESMLGGARMEVIFGRQHSAPKDE

Some of the results follow.

The variants in this experiment derive from B1. Nature of the experiment: enrichment ratio after two sorts for PhoP signalling (ratio (wild type AVST 3.29)); higher = more functional. As to conditions: with PhoP (E. coli).
KSLT: the enrichment ratio was not above 0.25.

With FRAM, the enrichment ratio was not above 0.25. Take WAIW: the enrichment ratio is not above 0.25. Turning to HWSQ, the enrichment ratio is not above 0.25. On to DWES, for which the enrichment ratio was not above 0.25. For the variant GWNW, the enrichment ratio is not above 0.25. IIQS: the enrichment ratio was not above 0.25. As for IYSE, the figure is not above 0.25. As for VNNN, the figure is not above 0.25; as for DNII, not above 0.25; as for DRAL, not above 0.25.

Take IVHS: the enrichment ratio was not above 0.25.

IWQM: the enrichment ratio was not above 0.25. Regarding AVPH, the enrichment ratio was not above 0.25. Turning to HWTK, the enrichment ratio was not above 0.25. For the variant NRCS, the enrichment ratio was not above 0.25.

Regarding KMYQ, the enrichment ratio is not above 0.25. As for MNCD, the figure is not above 0.25. Consider TISH, for which the enrichment ratio is 10.4. On to NHQA, for which the enrichment ratio is not above 0.25.

MESP: the enrichment ratio was not above 0.25. With TLLG, the enrichment ratio is 0.286. As for DAAG, the figure is not above 0.25; as for LLAD, not above 0.25.

Consider DWHW, for which the enrichment ratio was not above 0.25. Turning to QDCK, the enrichment ratio was not above 0.25. On to QQAM, for which the enrichment ratio was not above 0.25. Consider YSCN, for which the enrichment ratio was not above 0.25. As for CCHN, the figure is not above 0.25; as for MFCE, not above 0.25; as for RNSM, not above 0.25. Consider WDAY, for which the enrichment ratio was not above 0.25. With TGDM the figure was not above 0.25; with ATFN, not above 0.25. As for GCVG, the figure is not above 0.25; as for FRQG, not above 0.25.

LVYT: the enrichment ratio is not above 0.25. As for TRTC, the figure is not above 0.25; as for MCQS, not above 0.25; as for MCVC, not above 0.25. On to VTPP, for which the enrichment ratio is not above 0.25. For the variant TGWW, the enrichment ratio was not above 0.25. As for AFQY, the enrichment ratio is not above 0.25. With MVNI the figure was not above 0.25. NESF: the enrichment ratio was not above 0.25. Take DGIA: the enrichment ratio is not above 0.25. On to WGSP, for which the enrichment ratio is not above 0.25.

For YFVP, the enrichment ratio was not above 0.25. On to FAVK, for which the enrichment ratio is not above 0.25. Consider YICM, for which the enrichment ratio stood at 0.373. Consider MMMI, for which the enrichment ratio is not above 0.25. With ASSI the figure was 15.8. For the variant GPPE, the enrichment ratio is not above 0.25. With HGTT the figure was not above 0.25; with NNLI, not above 0.25; with RNKC, not above 0.25. Turning to AYGP, the enrichment ratio was not above 0.25. Turning to PRLI, the enrichment ratio was not above 0.25. As for DWFT, the figure is not above 0.25; as for VHKM, not above 0.25. With HHNW the figure was not above 0.25; with RTHC, not above 0.25; with RYHT, not above 0.25. Regarding QSSM, the enrichment ratio came to 15.9. For the variant SWCM, the enrichment ratio is not above 0.25. As for QELW, the enrichment ratio is not above 0.25. With ECPP, the enrichment ratio was not above 0.25. As to KHLL, the enrichment ratio was not above 0.25. For the variant GHNP, the enrichment ratio was not above 0.25. As for TTAS, the enrichment ratio was 7.45. Take RFCD: the enrichment ratio is not above 0.25. For the variant EVVR, the enrichment ratio is not above 0.25.

On to QTTK, for which the enrichment ratio is not above 0.25. On to ECNA, for which the enrichment ratio was not above 0.25. For the variant TDDV, the enrichment ratio is not above 0.25. On to RSAG, for which the enrichment ratio was not above 0.25. Turning to EWWL, the enrichment ratio was not above 0.25. Turning to GAMI, the enrichment ratio worked out at 18.9.

As to EKFY, the enrichment ratio is not above 0.25. Consider DQIL, for which the enrichment ratio was not above 0.25. Regarding NDSG, the enrichment ratio was not above 0.25. Consider WHTH, for which the enrichment ratio was not above 0.25. As for QTRE, the enrichment ratio is not above 0.25. For IDYY, the enrichment ratio was not above 0.25. On to VHPK, for which the enrichment ratio is not above 0.25. Turning to FQTM, the enrichment ratio was not above 0.25. On to NDIN, for which the enrichment ratio is not above 0.25. On to ILYD, for which the enrichment ratio was not above 0.25. Take TQQM: the enrichment ratio worked out at 17.5. With SVHR, the enrichment ratio was not above 0.25. With LQWH the figure was not above 0.25; with VYAF, not above 0.25. With RYCM the figure was not above 0.25; with RDGS, not above 0.25. As for EYCK, the figure is not above 0.25; as for RAFW, not above 0.25; as for TWDS, not above 0.25. Take KFDR: the enrichment ratio is not above 0.25. In the case of WFPF, the enrichment ratio is not above 0.25. With LEMD, the enrichment ratio is not above 0.25. On to PSSF, for which the enrichment ratio is not above 0.25. As for GKPI, the figure is not above 0.25.

Consider NEKP, for which the enrichment ratio was not above 0.25. RHYY: the enrichment ratio was not above 0.25.

As to YPEH, the enrichment ratio was not above 0.25. In the case of GSET, the enrichment ratio was not above 0.25. With TILT, the enrichment ratio came out at 2.41. Regarding SEQH, the enrichment ratio came out at 6.74. For the variant DCAL, the enrichment ratio is not above 0.25. VEKH: the enrichment ratio was not above 0.25. As for QQIL, the figure is not above 0.25. With PPDS, the enrichment ratio is not above 0.25. With VMWR the figure was not above 0.25. On to VYAR, for which the enrichment ratio is not above 0.25. Consider WAID, for which the enrichment ratio is not above 0.25. As for YPKQ, the enrichment ratio was not above 0.25. In the case of NFQC, the enrichment ratio is not above 0.25. For the variant ADRE, the enrichment ratio is not above 0.25.

Consider FIRH, for which the enrichment ratio was not above 0.25. On to WFRN, for which the enrichment ratio was not above 0.25.

Turning to YCNF, the enrichment ratio was not above 0.25.

Turning to DADD, the enrichment ratio is not above 0.25. With KTFI the figure was not above 0.25; with LTMY, not above 0.25. With GQHR the figure was not above 0.25; with NMEQ, not above 0.25. As for VMGC, the figure is not above 0.25; as for TAKF, not above 0.25. GHYI: the enrichment ratio is not above 0.25.

As to AILH, the enrichment ratio was 3.54. Take SWKK: the enrichment ratio was not above 0.25. YFMT: the enrichment ratio was not above 0.25. Consider GMQN, for which the enrichment ratio was not above 0.25.

For the variant KYMW, the enrichment ratio was not above 0.25. On to WVYF, for which the enrichment ratio amounted to 1.23.

Turning to SRGI, the enrichment ratio was not above 0.25.

As for PTNE, the enrichment ratio is not above 0.25. As for IMGI, the enrichment ratio is not above 0.25. As to WYVN, the enrichment ratio was not above 0.25. For the variant PMPG, the enrichment ratio was not above 0.25. With ETQI, the enrichment ratio was not above 0.25. As to DKYH, the enrichment ratio is not above 0.25. Take KDKR: the enrichment ratio is not above 0.25. For the variant PGCV, the enrichment ratio is not above 0.25. Turning to GHCQ, the enrichment ratio was not above 0.25. For the variant WILG, the enrichment ratio is not above 0.25. As for MHNI, the enrichment ratio is not above 0.25. For PYLL, the enrichment ratio was not above 0.25. With TYHF the figure was not above 0.25. Consider FWRN, for which the enrichment ratio was not above 0.25. For the variant GTER, the enrichment ratio was not above 0.25. As for ITYT, the enrichment ratio is not above 0.25. VEFH: the enrichment ratio is not above 0.25. As for WSSC, the figure is 0.528; as for TAWA, 3.58; as for DCTA, not above 0.25. With DALK the figure was not above 0.25; with SQLC, 6.15.

In the case of DWKR, the enrichment ratio was not above 0.25.

As to HQWV, the enrichment ratio was not above 0.25. Turning to FTKC, the enrichment ratio is not above 0.25.

Take NKNP: the enrichment ratio is not above 0.25. As to QEFR, the enrichment ratio was not above 0.25. Take HVTY: the enrichment ratio is not above 0.25. With QYNA the figure was not above 0.25; with KAKT, not above 0.25.

Regarding MTVE, the enrichment ratio is not above 0.25. As to RLNV, the enrichment ratio is not above 0.25. Take KALI: the enrichment ratio is not above 0.25. With VPFP the figure was not above 0.25; with MYQY, not above 0.25.

For the variant GAGR, the enrichment ratio is not above 0.25. For the variant TANA, the enrichment ratio was determined as 15.9. Regarding EPIF, the enrichment ratio is not above 0.25. With TDNY the figure was 1.07. As to PQIK, the enrichment ratio is not above 0.25. In the case of QMWW, the enrichment ratio is not above 0.25. In the case of GKHK, the enrichment ratio is not above 0.25. On to VGIG, for which the enrichment ratio is not above 0.25. For TEHS, the enrichment ratio is 18.1. Consider DYFF, for which the enrichment ratio was not above 0.25. Consider MGKN, for which the enrichment ratio was not above 0.25. With IKYP the figure was not above 0.25; with RVAK, not above 0.25.

As to ILRT, the enrichment ratio was not above 0.25. With IWCS the figure was not above 0.25; with DVSI, not above 0.25; with ADPN, not above 0.25. Regarding GKDH, the enrichment ratio was not above 0.25. With MVEP the figure was not above 0.25; with HNYN, not above 0.25; with AYFV, not above 0.25.

In the case of DIEM, the enrichment ratio was not above 0.25. For ITKM, the enrichment ratio is not above 0.25.

Take PKPV: the enrichment ratio is not above 0.25.

(Values after a collection of fitness landscapes (doi:10.1126/science.1257360).)
